From PubChem BioAssay AID485344 (National Center for Advancing Translational Sciences (NCATS), 2010)
In all, about 340,000 compounds went through this assay and about 6,900 (2%) were called active. Cut-off read from the data, not from the text of the source: active = inhibition above about 30%; inactive = below that, where a call was filed. This is a selection; strong and weak results do not stand in their true shares. The source gives no active or inactive call for entries shown without one. Some compounds were tested as several samples or in several runs, with calls that do not always agree.

target: D(2) dopamine receptor (Homo sapiens) (UniProt P14416); assay: HTS Assay for Allosteric Antagonists of the Human D2 Dopamine Receptor: Primary Screen for Antagonists; details: HEK293 TREx D2 cells, calcium flux, dopamine EC80; at 10 µM; stronger effect = higher value; note: 0% is about no effect
Chain of UniProt P14416 (P14416 whole entry, looked up): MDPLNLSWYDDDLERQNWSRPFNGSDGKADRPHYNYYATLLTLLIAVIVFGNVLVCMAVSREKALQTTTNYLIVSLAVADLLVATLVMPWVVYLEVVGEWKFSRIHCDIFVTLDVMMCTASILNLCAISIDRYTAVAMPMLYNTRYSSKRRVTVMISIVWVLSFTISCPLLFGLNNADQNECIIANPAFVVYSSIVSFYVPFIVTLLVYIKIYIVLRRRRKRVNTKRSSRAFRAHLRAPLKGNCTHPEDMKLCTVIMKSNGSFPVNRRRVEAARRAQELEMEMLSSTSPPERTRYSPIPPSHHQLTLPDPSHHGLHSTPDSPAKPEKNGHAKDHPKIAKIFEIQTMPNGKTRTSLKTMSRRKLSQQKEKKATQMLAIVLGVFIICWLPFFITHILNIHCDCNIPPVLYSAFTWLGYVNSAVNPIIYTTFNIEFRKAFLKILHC
In short: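 Overnight-induced (tetracycline, 30 C) HEK293 T-REx cells carrying force-coupled D2 receive a no-wash calcium dye, then compound, then EC80 dopamine at 180 s; signals are read kinetically throughout.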

Question: How did the inhibition turn out when `COc1ccc(-c2cc3nc(C)c(CCC(=O)NC4CCCCC4)c(C)n3n2)c(OC)c1` was run?
Answer: 0.248%

Question: Which inhibition does the source give for `C#CCOCCOCCOCCNc1nc(N2CCN(C(=O)[C@H](C)n3cc(CCCN=C(N)N)nn3)CC2)nc(N2CCN(C(=O)[C@H](CCCCN)n3cc(CCCC)nn3)CC2)n1` here?
Answer: active: 31%

Question: Which inhibition does the source give for `COc1cccc(-c2nc(S(=O)(=O)c3ccc(C)cc3)c(N3CCCCC3)o2)c1` here?
Answer: -6.99%

Question: How did the inhibition turn out when `COc1ccc(-c2nc(SCC(=O)Nc3c(C)cc(C)cc3C)n[nH]2)cc1` was run?
Answer: 8.99%

Question: Which inhibition does the source give for `O=C(Nc1nc2c(s1)CN(Cc1ccccc1)CC2)c1cccc(S(=O)(=O)N2CCc3ccccc32)c1` here?
Answer: active: 40.8%

Question: How did the inhibition turn out when `CCOC(=O)c1c(C)oc2ncnc(Nc3ccc(OC)c(OC)c3)c12` was run?
Answer: 0.724%

Question: For `COC(=O)c1ccc(C(=O)OC)c(NC(=O)c2ccc(-c3ccccc3)s2)c1`, which inhibition is on record?
Answer: 13.8%

Question: How did the inhibition turn out when `COCCCNC(=O)CCC(=O)NNc1nc2ccccc2c2nc(C)nn12` was run?
Answer: -7.4%

Question: With `CC(C)Oc1ccc(-c2nc3c(C#N)c[nH]n3c2NC2CCCCC2)cc1` as the molecule, how does the inhibition read?
Answer: 16.3%

Question: How did the inhibition turn out when `COc1ccc(N2CC(NC(=O)C(c3ccccc3)c3ccccc3)CC2=O)cc1OC` (stereo not given) was run?
Answer: 14.7%

Question: `COC(=O)c1nnn(CC(=O)NC(=O)Nc2c(C)cccc2C)c1C(=O)OC` was tested. Which inhibition did it give?
Answer: 16.8%

Question: Which inhibition does the source give for `CC1Cc2ccccc2N1S(=O)(=O)c1nnc(NC(=O)c2ccccc2)s1` (stereo not given) here?
Answer: 14.9%

Question: For `COc1ccc(C2CC(=O)c3cc(-c4nc(-c5ccc(Cl)cc5)cs4)c(=O)[nH]c3C2)cc1OC` (stereo not given), which inhibition is on record?
Answer: 5.45%

Question: How did the inhibition turn out when `CCn1cc(C(=O)N2CCN(c3cccc(C)c3C)CC2)c2cc(OC)c(OC)cc2c1=O` was run?
Answer: 11.9%

Question: How did the inhibition turn out when `NNc1ncnc2c1cnn2-c1ccccc1` was run?
Answer: active: 30.7%

Question: `NS(=O)(=O)c1ccc(NC(=O)C2Cc3ccccc3N2C(=O)c2ccccc2)cc1` (stereo not given) was tested. Which inhibition did it give?
Answer: 17.4%

Question: For `COc1ccc(OC)c(CCNC(=O)Cn2ncc3c([nH]c4ccccc43)c2=O)c1`, which inhibition is on record?
Answer: 4.9%

Question: With `CCCCN(CC)CCCNC(=O)c1nn(C)c2c1CSc1ccccc1-2` as the molecule, how does the inhibition read?
Answer: 12.5%

Question: How did the inhibition turn out when `Cc1ccccc1C(=O)n1nc(-c2cccnc2)nc1NCc1ccccc1` was run?
Answer: -13.2%

Question: With `CCn1cc2nc(SCC(=O)Nc3ccccc3C(F)(F)F)n(Cc3ccc(C)cc3)c(=O)c2n1` as the molecule, how does the inhibition read?
Answer: -9.14%

Question: Which inhibition does the source give for `CCOC(=O)c1c(C)[nH]c(CCC(=O)Nc2ccc(OC)c(OC)c2)c1C` here?
Answer: -10.1%

Question: Which inhibition does the source give for `CC(C)NC(=O)CCC(=O)N1Cc2ccccc2Oc2ncccc21` here?
Answer: -3.79%

Question: How did the inhibition turn out when `Cc1noc(C)c1S(=O)(=O)N1CCC(C(=O)N2CCN(c3cccc(C(F)(F)F)c3)CC2)CC1` was run?
Answer: -5.28%

Question: With `CCC1CCCCN1C(=O)CSc1nc2c([nH]c3ccccc32)c(=O)n1-c1ccc(OC)cc1` (stereo not given) as the molecule, how does the inhibition read?
Answer: -6.21%

Question: How did the inhibition turn out when `CCOc1ccccc1CNc1nc2nc(C)cc(C)n2n1` was run?
Answer: -2.07%

Question: With `Cc1ccc(Cn2c(C(C)NC(=O)c3ccccc3)nc3ccccc32)cc1` (stereo not given) as the molecule, how does the inhibition read?
Answer: 0.648%

Question: With `Cc1ccccc1CN1C(=O)c2ccccc2S(=O)(=O)c2ccc(C(=O)OCC3CCCO3)cc21` (stereo not given) as the molecule, how does the inhibition read?
Answer: 2.89%

Question: Which inhibition does the source give for `Cc1ccc(C(C)C)c(OC(C)C(=O)NCC2(N(C)C)CCCCC2)c1` (stereo not given) here?
Answer: -3.22%

Question: For `COc1ccc(NC(=O)c2sccc2SCC#N)cc1`, which inhibition is on record?
Answer: active: 31.6%

Question: `COc1ccc(S(=O)(=O)Nc2cc(S(=O)(=O)c3ccccc3)c(O)c(C)c2C)cc1` was tested. Which inhibition did it give?
Answer: -1.55%

Question: How did the inhibition turn out when `Cc1cc(OC(C)C(=O)Nc2sc3c(c2C(N)=O)CCCC3)ccc1Cl` (stereo not given) was run?
Answer: 8.72%

Question: For `CC(NC(=O)CN1C(=O)c2cccnc2Oc2ccc(Cl)cc21)c1ccccc1` (stereo not given), which inhibition is on record?
Answer: -3.5%

Question: `CC(CN1c2ccccc2Sc2ccccc21)N(C)C` (stereo not given) was tested. Which inhibition did it give?
Answer: active: 54.1%

Question: Which inhibition does the source give for `COc1ccc(-c2cc3ccc(O)c(CN4CCC(C)CC4)c3oc2=O)cc1OC` here?
Answer: -4.33%

Question: Which inhibition does the source give for `Cc1cccc(Cn2cccc2CNS(=O)(=O)c2ccc(Br)cc2)c1` here?
Answer: 11.7%

Question: For `COc1cc(-c2nnc(SCCOc3cc(C)cc(C)c3)o2)cc(OC)c1OC`, which inhibition is on record?
Answer: 9.82%

Question: For `Cc1ccc(-c2nnc(Nc3ccc(F)cc3)c3ccccc23)cc1S(=O)(=O)N1CCN(C)CC1`, which inhibition is on record?
Answer: 5.57%

Question: With `Cc1ccc(CNCc2cccn2-c2nnc(N3CCCC3)s2)cc1` as the molecule, how does the inhibition read?
Answer: 17.1%

Question: How did the inhibition turn out when `CCOc1cccc2c1Oc1nc(-c3ccccc3)nc(SCC(=O)Nc3ccc(F)cc3)c1C2` was run?
Answer: 5.35%

Question: Which inhibition does the source give for `O=C(c1ccccc1Cl)N1CCCCC1CCN1CCOCC1` (stereo not given) here?
Answer: -7.78%

Question: `COc1ccc(C2Nc3ccccc3NC3=C2C(=O)CC(C)(C)C3)cc1OC` (stereo not given) was tested. Which inhibition did it give?
Answer: active: 37.9%

Question: With `COc1ccc(Cn2c(=S)[nH]c3cc(C(=O)NCCCN4CCOCC4)ccc3c2=O)cc1` as the molecule, how does the inhibition read?
Answer: active: 35.6%

Question: Which inhibition does the source give for `Cc1cc2n(n1)CCC(=O)N2Cc1ccc(C(=O)Nc2ccc(F)cc2F)cc1` here?
Answer: -20.6%

Question: How did the inhibition turn out when `COc1ccc(-c2nc3scc(CCNC(=O)c4cccc(Br)c4)n3n2)cc1` was run?
Answer: -4.07%

Question: Which inhibition does the source give for `COc1ccc(NC(=O)c2sc3nc4c(c(-c5ccc(OC)cc5)c3c2N)C(=O)CC(C)(C)C4)cc1` here?
Answer: -4.01%

Question: `Cc1cc(-c2ccc(S(=O)(=O)N3CCN(c4ccc(Cl)cc4)CC3)s2)on1` was tested. Which inhibition did it give?
Answer: -2.82%

Question: For `CCOC(=O)c1ccc(N2C(=O)c3[nH]nc(-c4ccc(OCC)cc4)c3C2c2cccs2)cc1` (stereo not given), which inhibition is on record?
Answer: -2.75%

Question: With `CN(CC(O)CN1CCOCC1)S(=O)(=O)O` (stereo not given) as the molecule, how does the inhibition read?
Answer: active: 34.1%

Question: Which inhibition does the source give for `O=C(Nc1cc(-c2nc3cc(Cl)ccc3o2)ccc1Cl)c1cc([N+](=O)[O-])ccc1N1CCOCC1` here?
Answer: 11.1%

Question: For `COc1ccc2[nH]cc(CCNC(=O)c3cnn(-c4ccc(C)cc4)c3C3CCN(C(=O)OC(C)(C)C)CC3)c2c1`, which inhibition is on record?
Answer: 12.3%

Question: How did the inhibition turn out when `COC(=O)c1cc2oc3ccccc3c2n1Cc1nc(-c2cccc(C)c2)oc1C` was run?
Answer: -0.694%

Question: For `COCCN1C(=O)c2oc3ccc(C)cc3c(=O)c2C12C(=O)N(C)c1ccccc12` (stereo not given), which inhibition is on record?
Answer: 1.34%

Question: How did the inhibition turn out when `CC(=O)Nc1ccc(NC(=O)C2(c3cccs3)CCOCC2)cc1` was run?
Answer: 13.9%

Question: How did the inhibition turn out when `CC(C)N(Cc1ccccc1)C(=O)C1CCCN(c2ncnc3onc(-c4ccc(F)cc4)c23)C1` (stereo not given) was run?
Answer: -2.89%

Question: `COc1cc(CCC(=O)Nc2cccc(S(=O)(=O)N(C)C)c2)cc(OC)c1OC` was tested. Which inhibition did it give?
Answer: active: 39.3%

Question: Which inhibition does the source give for `COc1ccccc1CNC(=O)c1cnc(SC)nc1C` here?
Answer: 23.7%

Question: Which inhibition does the source give for `CCOC(=O)c1c(NC(=O)COc2ccc(C)cc2C(C)(C)C)sc2c1CCC(C)C2` (stereo not given) here?
Answer: 3.43%

Question: For `COc1ccc(OC)c(CCNC(=O)c2cnn(-c3ccc(C)cc3C)c2C2CCN(C(=O)OC(C)(C)C)CC2)c1`, which inhibition is on record?
Answer: -0.762%

Question: Which inhibition does the source give for `Cc1c(C(=O)N2CCC(C)CC2)c(S(=O)(=O)Nc2cccc(C(F)(F)F)c2)c(C)n1C` here?
Answer: -5.12%

Question: How did the inhibition turn out when `Cc1ccc(Cn2c(CNC(=O)Cc3cccc(C)c3)nc3cccnc32)cc1` was run?
Answer: -6.11%
